Results published in PubChem BioAssay AID652104 (National Center for Advancing Translational Sciences (NCATS), 2013).
Several values for one entry are separate records, joined by “and”; a condition that tells them apart may be missing. Identical values can stand only once. The campaign covered roughly 410,000 compounds. About 7,200 (1.8%) were called active. The inconclusive results got no clear call from the source; some entries with a clear call stand among them for comparison. The call rests on the fitted dose curve; in most records, active means well fitted activation curve with a large enough effect; inconclusive means small, poorly fitted or top-dose-only effect, or another doubt; inactive means no such curve, though single readings can be large or run the other way. A potency beside an inconclusive call is a rough fit, not a confirmed value.

experiment: qHTS of TDP-43 Inhibitors; conditions: TDP-43 expressing yeast growth rescue, BacTiter-Glo, 24 h; growth rescue (activation): at 46.1 µM (top of the series) unless noted; further: nearly all actives have a fitted effect of over 50% in size; on growth rescue (activation): % of control where 0% means no effect
How it was run: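 Galactose-induced TDP-43 yeast, OD600=0.02, compound pinned; 24 hr, 30 deg C; BacTiter-Glo luminescence for growth. Inhibitors of TDP-43 toxicity read as activators.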
Potency means the concentration at half of the fitted maximal effect; tags describe the fitted curve by direction and shape.

Potency, inactive:
O=C(c1cnn(C(=O)c2ccccc2)c1)c1ccccc1O
CCOc1ccc(NC(=O)CSc2nc(=O)[nH]c3c2CCC3)cc1
CCCCCn1c(=O)c2c(nc3n2CCN3c2ccc(Br)cc2)n(C)c1=O
CCn1c(CC2C(=O)N(C)c3ccc(Br)cc32)nc2ccccc2c1=O (stereo not given)
COc1cccc(C(=O)Nc2ccc(C(=O)OCc3cc(=O)n4nc(C5CC5)sc4n3)cc2)c1
CC(C)OCCCn1c(=O)c2ccccc2n2c(CCC(=O)NC3CCN(Cc4ccccc4)CC3)nnc12
CCC(C)NCC(=O)Nc1ccc(-c2nc3cc(NC(=O)CNC(C)CC)ccc3o2)cc1 (stereo not given)
CC1CCN(CCOCCOc2ccc(Cl)cc2Br)CC1
O=C(Nc1ccc2c(c1)nc1n2CCN(Cc2ccccc2)C1)NC1CCCCC1
O=C1N=C(N2CCOCC2)S/C1=C\c1ccccc1OS(=O)(=O)c1ccccc1
CCC(=O)Nc1sc2c(c1C(=O)Nc1ccc(Br)cc1)CCCCC2
COc1cccc2c1cc1c(=O)n(CC(=O)N3CCC(C)CC3)nc(C)n12
CN1CCN(C(CNC(=O)c2c(F)cccc2F)c2ccc3c(c2)OCO3)CC1 (stereo not given)
CCc1ccccc1NC(=O)NC(CC)Cn1nnc2ccccc2c1=O (stereo not given)
Cc1ccc(C(=O)CCC(=O)OCC(=O)Nc2cc(S(=O)(=O)N(C)C)ccc2C)cc1

Potency, active:
Cc1ccc(C)c(CNC(=O)c2sc3ncnc(N(C)C4CCCCC4)c3c2C)c1 22.4 µM
CCC1CN(C(=O)N2CCC(C(=O)N3CCN(c4cc(C)ccc4C)CC3)CC2)c2ccccc2O1 (stereo not given) 22.4 µM
O=C(c1cccc(Cl)c1)N1CCC(c2nc3ccccc3o2)CC1 12.6 µM
O=C(Nc1ccc2c(c1)OCO2)N1CCN(c2cccc(C(F)(F)F)c2)CC1 10 µM
O=C(N/N=C\C=C\c1ccco1)C1COc2ccccc2O1 (stereo not given) 14.1 µM
N/C(=N\OC(=O)CCCc1ccccc1)c1ccc([N+](=O)[O-])cc1 22.4 µM
Cc1ccc(S(=O)(=O)NC(=S)NC2CCCCC2)cc1 15.8 µM
O=C1CC(c2ccccc2)=NO1 10 µM
Cc1cccc(N2CCN(C(=O)c3cc4ccc5cccnc5c4[nH]3)CC2C)c1 (stereo not given) 8.91 µM
O=C(c1cc2ccc3cccnc3c2[nH]1)N1CCN(c2cccc(Cl)c2)CC1 12.6 µM

Potency, inconclusive:
C/C(=N\OC(=O)C1CC1)C1CC1c1ccc(F)cc1 (stereo not given) 15.8 µM [activator, single point]
O=C(Nc1nc(-c2ccccn2)cs1)c1ccc2c(c1)OCCO2 5.62 µM [activator, full curve]
Clc1ccc(-c2nnc(-c3ccco3)nc2N2CCCCC2)cc1 35.5 µM [activator, single point]
O=C(CCCC(=O)N1CCCc2ccccc21)N1CCCc2ccccc21 31.6 µM [activator, single point]
O=c1cccc(-c2ccc3ccccc3c2)o1 15.8 µM [activator, partial curve]
CCOc1cc(C(=O)NC(C)COC)cc(OCC)c1OCC (stereo not given) 28.2 µM [activator, partial curve, poor fit]
Nc1c(Br)cc2c(c1Br)C(O)c1ccccc1-2 (stereo not given) 12.6 µM [activator, single point]
CC(NC(=O)CSc1nnc(CC(=O)Nc2ccc(Cl)c(Cl)c2)n1C)c1ccccc1 (stereo not given) 35.5 µM [activator, partial curve, poor fit]
O=C1COc2ccc(-c3csc(NCCc4ccccc4)n3)cc2N1 15.8 µM [activator, single point]
c1ccc(OCCSc2nnc3sc4ccccc4n23)cc1 17.8 µM [activator, single point]
O=c1c2ccccc2c(/C=N/c2nnc(Cc3ccccc3)s2)c(O)n1-c1ccc(Cl)cn1 20 µM [activator, single point]
Nc1[nH]n(-c2ccccc2)c(=O)c1N=Nc1ccc2c(c1)OCCO2 6.31 µM [activator, partial curve]
CCOC(=O)CC1=CCc2c1ccc(OC)c2OC 15.8 µM [activator, partial curve]
Cc1ccc(NC(=O)N2CCC(O)(c3ccc(Cl)cc3)CC2)cc1 25.1 µM [activator, single point]
CC(=O)Nc1ccc(Nc2ncnc3sc4c(c23)CCCC4)cc1 35.5 µM [activator, single point]
Cc1cccc(C(=O)N2CCc3cc(CNS(=O)(=O)c4cccs4)ccc32)c1 22.4 µM [activator, single point]
Brc1ccc(CSc2ncnc3nc[nH]c23)cc1 20 µM [activator, partial curve]
CCCCCCSc1ncc(C#N)c(N)n1 22.4 µM [activator, single point]
CC1(C)Cc2cccc(OCC(=O)N3CCN(c4ccc([N+](=O)[O-])cc4)CC3)c2O1 8.91 µM [activator, partial curve]
CC(C)NC(=O)Nc1cccc2c1O[C@H](CN(C)S(=O)(=O)c1cccs1)[C@@H](C)CN([C@H](C)CO)C2=O 6.31 µM [activator, single point]
CCOc1ccc(NC(=O)c2cc(F)c(F)cc2Cl)cc1OCC 22.4 µM [activator, partial curve]
CC(Oc1ccccc1)C(=O)NNC(=O)c1ccccn1 (stereo not given) 35.5 µM [activator, single point]
Cc1cccc(NC(=O)Cc2noc3ccccc23)c1 10 µM [activator, partial curve]
CCC1Oc2ccc(C)cc2N(CC(=O)N(Cc2ccc(C)o2)C2CCCC2)C1=O (stereo not given) 11.2 µM [activator, partial curve]
COc1cc(Cl)ccc1OCc1cc(C(=O)N2CCCC(OC)C2)no1 (stereo not given) 17.8 µM [activator, partial curve]
O=C(CN1C(=O)c2ccccc2C1=O)N1CCN(C2c3ccccc3-c3ccccc32)CC1 14.1 µM [activator, partial curve]
Cc1oc2ccc(O)cc2c1C(=O)c1ccc([N+](=O)[O-])cc1 14.1 µM [activator, partial curve]
COc1ccc(NS(=O)(=O)c2ccc(C)c(C(=O)NCC(c3ccco3)N3CCCCC3)c2)cc1 (stereo not given) 35.5 µM [activator, single point]
O=C(O)CCCc1nc(-c2ccc(Cl)cc2)no1 3.16 µM [activator, partial curve]
Cn1c(=O)cc(SCC(=O)N2CCN(c3ccccc3)CC2)c2ccccc21 17.8 µM [activator, partial curve]
COc1ccc(N/C=C(\C#N)c2nc3ccccc3n2C)c(OC)c1 14.1 µM [activator, single point]
COc1cccc(CNC(=O)c2cc3ccc4cccnc4c3[nH]2)c1 6.31 µM [activator, partial curve]
O=C(C1=NOC2(C1)C(=O)N(Cc1ccccc1)c1ccccc12)N1CCOCC1 (stereo not given) 0.355 µM [activator, full curve, poor fit]
O=C(O/N=C1/CCCc2occc21)c1ccccc1 8.91 µM [activator, partial curve]
CCc1ccccc1N(CC)C(=O)C1CCN(c2ncnc3c2nc2n3CCCCC2)CC1 35.5 µM [activator, single point] and 20 µM [activator, partial curve]
CCOC(=O)C1=C(C)NC(C)=C(C(=O)OCC)C1c1ccc([N+](=O)[O-])s1 11.2 µM [activator, partial curve, poor fit]
Cc1cc(C)n(-c2nc3ccccc3nc2Nc2ccc(CC(=O)O)cc2)n1 35.5 µM [activator, partial curve, poor fit]
CCOc1ccc(-c2nc(C#N)c(N3CCCCCC3)o2)cc1 35.5 µM [activator, single point]
O=C(COC(=O)CNS(=O)(=O)c1cccc(Br)c1)NC(=O)Nc1ccc2c(c1)OCCO2 28.2 µM [activator, partial curve]
CC(=O)Nc1nc2c(s1)C(=O)NCCC2 0.562 µM [activator, full curve, poor fit]
CCCCc1nn2c(=O)cc(COC(=O)c3ccccc3C)nc2s1 12.6 µM [activator, single point]
O=C(CSc1ccc(Cl)cc1)N1CCN(c2c(Cl)cccc2[N+](=O)[O-])CC1 0.562 µM [activator, full curve, poor fit]
N#Cc1c(NC(=O)C2C3C=CC(C3)C2C(=O)O)sc2c1CCCCC2 (stereo not given) 14.1 µM [activator, single point]
COc1ccc(N2CCN(C(=O)c3oc4ccccc4c3C)CC2)cc1 12.6 µM [activator, single point]

Growth rescue (activation), inconclusive:
CCOC(=O)C1=C(Cc2ccc(F)cc2)C(=O)c2ccccc2C1=O -87% [activator]
